# The RNAGym collection of RNA variant scans (doi:10.7554/elife.90254)
# The source gives no read counts; variants with many changes may rest on few reads.
# B1: LINE1-mini (parent)
# chain: GGCAGAGCUCAACACAGCGUGGCAAAGUGGCUGUGGCUAGACUGCC
# Variants of: B1
# Assay: self-cleavage, relative activity (ratio to wild type); higher = more cleavage; in vitro, sequencing; the parent is a self-cleaving ribozyme
row,Variant,self-cleavage
1,GGCAGAGCUCAACACAGCAUGGCAAAGCGGCUGUGGCUACACUGCC [G19A U28C G40C],0.12
2,GACAGAGCUCAACACAGCGUGGCAAUGUGCCUGUGGAAAGCCUGCC [G2A A26U G30C C37A U38A A41C],0.03
3,GGCAGAGCUCAAAACAGCGUGGCAAAGUGGGUGUCGCUAGACUGCC [C13A C31G G35C],0.03
4,GGUAAAGCUCAACACAGCGUGGCACAGUGGCUGUGGCUAGACUGAC [C3U G5A A25C C45A],0.05
5,AGCAGAGCUCAACACAGGGUGGCAAACUGGCUGUGCCUAGACUGCC [G1A C18G G27C G36C],0.13
6,GGCAGAGCUCAUCACAGCGUGGCAAAGUGGCUGUAGCUAGACUGUC [A12U G35A C45U],0.36
7,GGGAGAGCUCAAAACAGCGCCGCAAAGUAGCUGUGGCUAGACUGCC [C3G C13A U20C G21C G29A],0.17
8,GCCAGAGCUCAACACAGCAUGGCAAAGCGGCUGUGGCUAGACUGCC [G2C G19A U28C],0.98
9,GGCAGAGCUCAACACAGCUUGGCAAAGUGGCUUUGGGUAGACUGCA [G19U G33U C37G C46A],0.03
10,GGCAGAGCUUAACGCAGCGUGGCAUAGUGGAUGUGGCUAGUCUGCC [C10U A14G A25U C31A A41U],0.02
11,GGCAGAGCUCCACACAGCGUGGCAAAGUGGCUGUGGUUAGACUGCG [A11C C37U C46G],0.04
12,GGCCGAGCUCAACACAGCGUGGCAAAGUGGCUCUGGCUAGUCUGCC [A4C G33C A41U],0.09
13,GGCACAGCUCAACGCAGCGUGGCAAAGUGGCUGUUGCUAGACUGCC [G5C A14G G35U],0.13
14,GGCAGAGCUCAACACAGGGUGGCAAAGUGGCUGUGGCUAGGCUGCA [C18G A41G C46A],0.01
15,GGCAGAUCUAAACACAUAGUGGCAAAGUGGCUGUGGCUAGACUGCC [G7U C10A G17U C18A],0.03
16,UGCAGAGCUAAACACAGCGUGGAAAAGUGGCUGUGGCUAGACUGCC [G1U C10A C23A],0.02
17,GACAGAGCUCAACACAGCGUGGCAAAGUGGCUGUGGGCAGACUGCC [G2A C37G U38C],0.11
18,GGCAGAGCUCAACACAGCGUGGCAAAGUGGCUGUGGCAAUACUGGC [U38A G40U C45G],0.08
19,GGCACAGCUCAACACAGCGUGGCAAAGUGGCUGUGGAUAGCCUGCC [G5C C37A A41C],0.09

row,Variant,self-cleavage
1,GGCAGAGCUCUAUACAGCGAGGCAAAGUGGCUGUGGCUAGCCCGCC [A11U C13U U20A A41C U43C],0.01
2,GGCAGAGCUCAACCCAGCUUGGCAAAGUGGCUCUGGCUAGACUGCC [A14C G19U G33C],0.04
3,GGGAGAGCUCAACAUAGCGUGGCUAAGUGGCUGUGGCUAGACUGCC [C3G C15U A24U],0.5
4,GGCAGAGCUCAACACAGCGUGUCUAAGAGGCUGUGGCUAGACUGCG [G22U A24U U28A C46G],0.64
5,GGCAGAGCUAAACACAGCGUGGCAAAGUGGCUGUGGUUAGACUGGC [C10A C37U C45G],0
6,GGCAGAGUUCAACACAGCGCGUCAAAGUGUCUGUGGCUAGACUGCC [C8U U20C G22U G30U],0.04
7,GGCAGAGCUAAACACAGCGAGGCAACGUGGCUGUGGCUAGACUGCC [C10A U20A A26C],0.01
8,GGCAGAGAUCAACACAGCUUGGCAAAGUUGCUGUGGCUAGACUGCC [C8A G19U G29U],0.16
9,UUCAGAACUCAACUCAGCGAGGCAAAGUGGCUGCGGCUAGACUGCC [G1U G2U G7A A14U U20A U34C],0.01
10,GGCUGAUCUCAACACUGCGUGGCAAAUUGGCUGUGGAUAGACUGCC [A4U G7U A16U G27U C37A],0.18
11,GGCAGAGCUCAACACGGCGUGGCAAAGUGGCUGUGGCUUGACUGCG [A16G A39U C46G],0.23
12,GGCAGUGCUCAACAUAGCGUGGCAAAGUGGCUGUGGCUAGUCUGCC [A6U C15U A41U],0.1
13,GGAAGAGCUCAACGAAGCGUGGCAAAGUGGCUGUGGCUAGACUGCC [C3A A14G C15A],0.25
14,GGCAGAGCUAAACACAGCGUGGCACAGGGGCUGUGGCUAGACUGCC [C10A A25C U28G],0.03
15,GGCAGAGGUCAACACAGCGAGGCAAAGUGGAUGUGGCUAGACUCCC [C8G U20A C31A G44C],0.01
16,GGCAGAGCUCAACAAAGCGUGACAAAGUGGCUGUCGCUAGGCUGCC [C15A G22A G35C A41G],0.05
17,GGCAUAGCUCAACACAGCGAGGAAAAGUGGUUGUGGCUAGACUGCC [G5U U20A C23A C31U],0.02
18,AGCAGAGCUCAACACAUCGUGGCAUAGUGGCUGUGGUUAGACUCCC [G1A G17U A25U C37U G44C],0.03
19,GGCAGAGCUCAACACAGCGUGGCAAAGUAGCUGUAGCUAGAUUGCC [G29A G35A C42U],0.11

row,Variant,self-cleavage
1,GGCAGAGCUGAACACAGCGUGGCAAAGUGGCUGUGGCUAGCCUGAC [C10G A41C C45A],0.03
2,GGCAGAGCCAAAACCAGCGUGGCAAAGUGGCUGUGGCUAGACUGCC [U9C C10A C13A A14C],0.03
3,UGCAGAGUUCAACACAGCUUGGCAACGUGGCUGUGGCUAGACUGCC [G1U C8U G19U A26C],0.01
4,GGCAGAGCUCAACUGAGCGUUGCAAAGUCGCUGUGGCUAGACUGCC [A14U C15G G21U G29C],0.13
5,GGCAGAGCUCCACACAGCGUGGCAAAGUGGCUGUUGCUCGACUGCC [A11C G35U A39C],0.01
6,GUCAGACUUCAACACAGCGUGGCAAAGUGGCUGUGGCUAGACUGUC [G2U G7C C8U C45U],0.08
7,GGCAGAGCUCAACACACCGUGGCAAAGUGGAUGUAGCUAGACUGCC [G17C C31A G35A],0.02
8,GGCAGAGCUCAACACAGCGUGGCAACGUGGCUGUGGCUACACUGAC [A26C G40C C45A],0.03
9,UGCAGAUCUCAACAAAGCGUGGCAAAGUGGCUGUGGCUAGACUGCC [G1U G7U C15A],0.07
10,GGCAGAGCGCAACACAGUGUGGCAAAGUGGCUGUGGUUAGACUGCC [U9G C18U C37U],0.03
11,GGCAGAGCGCAACACAGCCUGGUAAACUGGCUGUGGCUAGACUGCC [U9G G19C C23U G27C],0.03
12,GGCAGGGCUCCCCACAGCGUGGCAAAGUGGCUGUGGCUAAGCUACC [A6G A11C A12C G40A A41G G44A],0
13,GGCUGAGCUAAACACAGCGUGGCCAAGUGGGUGUGGCUAGACUGCC [A4U C10A A24C C31G],0.02
14,GUCAUAGCUCAACACUGCGUGACAAAGUGGCUGUGGCUAGACUGCC [G2U G5U A16U G22A],0.03
15,GGCAGAGCUCUACACAGCGUAUCAAAGUGGCAGUGGCUAGACUGCC [A11U G21A G22U U32A],0.01
16,GGCGGAGCUCAACAAAGCGCGGCUAAGUCGGUGUCGCUAGACUCCC [A4G C15A U20C A24U G29C C31G G35C G44C],0.01
17,GGCAGAGCUGAACAAAGCGUGGCAAUGUGGCUGUGGCUAGACUGCC [C10G C15A A26U],0
18,GGCAGAGCUCAACACAGUGAGCCAAAGUGGCUGUGGCUAGACUGCC [C18U U20A G22C],0.1
